Measurements published in PubChem BioAssay AID1768 (National Center for Advancing Translational Sciences (NCATS), 2009).
Where “and” joins values, the source holds several entries; their conditions need not be identical. Identical values can stand only once. The campaign covered roughly 270,000 compounds. About 620 (0.23%) were called active. Inconclusive means that the source gave no clear call. Such entries were picked first, then a sample of the others. The call rests on the fitted dose curve; in most records, active means well fitted inhibition curve with a large enough effect in the polarisation, with a control signal flat (not every such curve was filed as active); inconclusive means small, poorly fitted or top-dose-only effect, or effect the other way, or a change in a side signal; inactive means no such curve, though single readings can be large or run the other way; the % refers to the polarisation. Potencies of inconclusive entries are doubtful fits and often do not repeat. A note “side channel” means that the fit belongs to a control or component signal, not to the main read-out.

Biological target: Menin (Homo sapiens) (UniProt O00255)
UniProt O00255, sequence (O00255 whole entry, looked up): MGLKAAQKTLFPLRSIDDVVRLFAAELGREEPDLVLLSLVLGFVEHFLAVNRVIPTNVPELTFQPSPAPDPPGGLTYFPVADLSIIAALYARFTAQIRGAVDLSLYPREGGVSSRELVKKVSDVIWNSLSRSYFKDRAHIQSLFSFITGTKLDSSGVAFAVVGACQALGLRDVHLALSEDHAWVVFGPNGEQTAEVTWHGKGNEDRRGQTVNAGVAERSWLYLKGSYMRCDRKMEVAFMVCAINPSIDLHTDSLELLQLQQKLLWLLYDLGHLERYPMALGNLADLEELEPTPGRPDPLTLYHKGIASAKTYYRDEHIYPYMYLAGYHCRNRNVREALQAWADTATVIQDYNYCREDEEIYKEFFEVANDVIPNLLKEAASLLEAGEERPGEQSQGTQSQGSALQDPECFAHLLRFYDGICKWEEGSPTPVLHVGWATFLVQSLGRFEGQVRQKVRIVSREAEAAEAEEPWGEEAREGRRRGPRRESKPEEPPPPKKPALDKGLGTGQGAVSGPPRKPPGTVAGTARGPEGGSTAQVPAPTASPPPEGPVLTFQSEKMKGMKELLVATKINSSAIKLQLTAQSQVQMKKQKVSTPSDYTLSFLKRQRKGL
Experiment: qHTS Assay for Inhibitors Targeting the Menin-MLL Interaction in MLL Related Leukemias: Competition With Texas Red Labeled MLL-derived Mutant Peptide; on FP activity change, negative = inhibition: % of control where 0% means no effect
Details: fluorescence polarization; FP activity change, negative = inhibition: at 61.6 µM (top of the series)
Potency means the concentration at half of the fitted maximal effect; tags describe the fitted curve by direction and shape or compound fluorescence and quenching.

Structure (SMILES)	Potency	FP activity change, negative = inhibition
O=C(Nc1nnc(CCc2ccccc2)s1)c1ccco1	inconclusive: 39.8 µM [inhibitor, partial curve]	
C[C@@H](C1[C@@H](O)CC2C3C=CC4C[C@@H](O)CC[C@]4(C)[C@H]3CC[C@@]21C)[C@@H]1CCCCN1 (stereo not given in full)	inactive	
CCCCOc1ccc(C(=O)N/C(=C/C=C/c2ccccc2)C(=O)O)cc1	inconclusive: 14.1 µM [quencher, side channel, partial curve]	
Cc1nnc2c3ccccc3c(-c3cccc4ccccc34)nn12	inactive	
CCOC(=O)NCCOc1ccc(Oc2ccccc2)cc1	inactive	
C/C(Cl)=C\Cn1c(O)c(N=NC(N)=S)c2ccccc21	inconclusive: 25.1 µM [quencher, side channel, single point]	
COc1cc(NC(=O)/C=C/c2ccccc2[N+](=O)[O-])cc(OC)c1	inconclusive: 28.2 µM [quencher, partial curve, poor fit]	
NS(=O)(=O)c1ccc2nc(NC(=O)Nc3ccc(F)cc3)sc2c1	inconclusive: 39.8 µM [inhibitor, single point]	
CSCC[C@@H](Nc1nc(-c2ccccc2)nc2c1oc1ccccc12)C(=O)O	inconclusive: 15.8 µM [quencher, side channel, partial curve]	
COCc1c(C(=O)NC2CCCCCC2)oc2ccccc12	inconclusive: 28.2 µM [fluorescent, side channel, partial curve]	
Cc1ccc(NC(=S)Nc2ccc(Cl)c(Cl)c2)c(OC(F)F)c1	inconclusive: 28.2 µM [quencher, side channel, single point]	
CSc1ccc(/C=C/C(=O)NC(=O)c2ccccc2O)cc1	inconclusive: 39.8 µM [quencher, side channel, single point]	
C=CCC(C)(NCc1ccccc1)c1ccc(C)cc1 (stereo not given)	inactive	
O=C(O)c1ccc2c(c1)C(=O)N([C@H](Cc1ccc3ccccc3c1)C(=O)O)C2=O	inconclusive: 4.47 µM [quencher, side channel, single point]	
N#C/C(=C\c1ccc(O)c(O)c1)C(=O)NCCCCc1ccccc1	inconclusive: 7.94 µM [quencher, side channel, full curve]	
CCOc1cc(/C=N/N=C/c2ccc(O)c(OCC)c2)ccc1O	inconclusive: 39.8 µM [inhibitor, single point]	
COc1ccccc1N/C=C(\C#N)c1nc2ccccc2[nH]1	inconclusive: 12.6 µM [quencher, side channel, partial curve]	
CCC(=O)c1cn(CCOc2ccccc2OC)c2ccccc12	inactive	
COC(=O)CCC(=O)NC(=S)Nc1sc(C)c(C)c1C(N)=O	inactive	
CC1(C)C2CCC1(C)C(OCC[N+](C)(C)CC(=O)OC1CCCCC1)C2 (stereo not given)	inconclusive: 4.47 µM [fluorescent, side channel, partial curve]	

Structure (SMILES)	Potency	FP activity change, negative = inhibition
CC(NCC(=O)Nc1cc(Cl)cc(Cl)c1)c1ccccc1 (stereo not given)	inconclusive: 14.1 µM [fluorescent, side channel, partial curve]	
Cc1ccc(N=Cc2c(O)c3ccccc3n(C)c2=O)cc1	inconclusive: 39.8 µM [quencher, side channel, single point]	
CCN(CC)CCNC(=O)CCc1nn(C)c(=O)c2ccccc12	inconclusive: 28.2 µM [inhibitor, single point]	
Fc1ccc(CSc2ncnc3sc4c(c23)CCCC4)cc1	inactive	
Cc1[nH]c2ccccc2c1-c1csc(NC(=O)CSCCO)n1	inconclusive: 25.1 µM [quencher, side channel, partial curve]	
CCOC(=O)C1CCN(S(=O)(=O)c2ccc(C(C)(C)C)cc2)CC1	inconclusive: 28.2 µM [fluorescent, single point]	
O=C(CCSCc1ccccc1)Nc1ccc2c(c1)OCCO2	inactive	
O=C(NCc1cccnc1)c1cc(-c2ccco2)on1	inconclusive: 35.5 µM [quencher, side channel, partial curve]	
CCCC(=O)NNc1c2ccccc2nc2ccccc12	inactive	
COc1ccc(OC)c(CCNC(=O)CN2C(=O)CCSc3ccccc32)c1	inconclusive: 25.1 µM [fluorescent, side channel, single point]	
CCOC(=O)c1c(-c2ccc(C)o2)csc1NC(=O)CN1CCCCC1	inconclusive: 11.2 µM [fluorescent, side channel, partial curve]	
Cc1ccc(Nc2nc(C(=O)N3CCC(C(=O)NCc4ccccc4)CC3)cs2)cc1	inconclusive: 6.31 µM [inhibitor, partial curve]	
Cn1c(Sc2nc3ccccc3n2C)nc2ccccc21		inactive: 8.93% [at 11.7 µM]
O=C(Nn1cnnc1)c1ccc(Cl)cc1	inconclusive: 2.82 µM [quencher, side channel, full curve]	
CC(C)CN(C)Cc1c(C(=O)N2CCc3ccccc3C2)nc2ccc(Cl)cn12	inconclusive: 15.8 µM [inhibitor, partial curve]	
COc1ccc2[nH]cc(CCNc3ccnc(-c4cccc(C#N)c4)n3)c2c1	inconclusive: 22.4 µM [quencher, side channel, partial curve]	
Cc1cccc(NC(=O)c2sc3nc4c(c(-c5ccco5)c3c2N)CCC4)c1	inconclusive: 22.4 µM [quencher, side channel, single point]	
Cc1ccc(C(NC(=O)NC(C)c2ccccc2)C(Cl)(Cl)Cl)cc1F (stereo not given)	inconclusive: 14.1 µM [inhibitor, single point]	
CC1(C)CC(=O)C2=C(C1)NC1=C(C(=O)c3ccccc31)C2c1ccc(Cl)cc1 (stereo not given)	inconclusive: 20 µM [quencher, side channel, partial curve]	
CN(C)S(=O)(=O)c1ccc2c(c1)/C(=C/c1cc3c([nH]1)CCCC3)C(=O)N2	inconclusive: 7.08 µM [quencher, partial curve]	

Structure (SMILES)	Potency	FP activity change, negative = inhibition
O=C(Cn1c(COc2ccccc2)nc2ccccc21)Nc1cccc(Cl)c1	inconclusive: 39.8 µM [fluorescent, single point]	
Cc1ccccc1C1=N/C(=C/c2cccs2)C(=O)O1	inconclusive: 31.6 µM [fluorescent, side channel, single point]	
Cc1cc(NC(=O)CCC(=O)N(c2ccccc2F)C(C(=O)NC2CCCC2)c2ccccc2)no1 (stereo not given)	inactive	
[C-]#[N+]/C(C#N)=C\c1cc(C(C)(C)C)c(O)c(C(C)(C)C)c1	inconclusive: 10 µM [quencher, side channel, partial curve]	
CCOC(=O)c1nn(-c2ccc(Br)cc2)cc1C(=O)c1cccc2ccccc12	inactive	
COc1ccc(C(=O)O)cc1S(=O)(=O)N1CCN(c2ccccn2)CC1	inconclusive: 3.16 µM [inhibitor, full curve]	
O=C(O)CCc1ccc(-c2ccc(Br)cc2)n1-c1ccc(O)cc1	inconclusive: 28.2 µM [quencher, side channel, partial curve]	
N#CC(C#N)=C1c2cc(S(N)(=O)=O)ccc2-c2ccc(S(N)(=O)=O)cc21	inactive	
N#C/C(=C(/O)COC(=O)CCc1ccc(S(=O)(=O)N2CCOCC2)cc1)c1nc2ccccc2[nH]1	inconclusive: 14.1 µM [quencher, side channel, partial curve]	
C/C(=N/NC(=O)NC12CC3CC(CC(C3)C1)C2)c1ccccc1	inconclusive: 7.94 µM [fluorescent, side channel, full curve]	
CC(C)(C)[C@]1(O)CCN2CC3c4ccccc4CCc4cccc(c43)[C@@H]2C1 (stereo not given in full)	inconclusive: 1.41 µM [fluorescent, side channel, full curve] and inconclusive: 11.2 µM [fluorescent, side channel, partial curve]	
C=CCNC(=O)c1onc(CSc2ccccc2CC)c1C(=O)O	inconclusive: 11.2 µM [quencher, side channel, partial curve]	
CC(C)c1onc(C(=O)Nc2sc3c(c2C#N)CCC3)c1[N+](=O)[O-]	inconclusive: 31.6 µM [quencher, side channel, single point]	
Cc1c(C)c2c(OCC(=O)NCCCO)cc3c(c2oc1=O)CCC(C)(C)O3	inactive	
COc1ccc(COC(=O)N/N=C2/C[C@@H](O)[C@@H](O)[C@@H]3[C@@H]4C(=O)N(C5CCCCC5)C(=O)[C@H]4CC[C@@H]23)cc1		inactive: -1.49% [at 11.7 µM]
S=c1[nH]nc(-c2cccnc2)n1-c1ccccc1	inconclusive: 2.82 µM [inhibitor, full curve, poor fit]	
Cc1cccc(NC(=O)CSc2nnc(-c3ccco3)c(-c3ccco3)n2)c1C	inconclusive: 25.1 µM [quencher, partial curve]	
COc1ccc(C2=NS(=O)(=O)N(C)C(C(=O)Nc3ccc(C)cc3)=C2)cc1	inconclusive: 17.8 µM [quencher, side channel, partial curve]	
CCCn1c(=O)c(C(=O)NNS(=O)(=O)c2ccc(Cl)cc2)c(O)c2ccccc21	inconclusive: 39.8 µM [inhibitor, single point]	
O=C(Nc1cc(Sc2ccccn2)cc([N+](=O)[O-])c1)c1ccc(Cl)cc1	inconclusive: 14.1 µM [quencher, side channel, partial curve]	
